According to the supplement of paper PMC4604168 (melanoma cell lines):
The list shows a part of the results. Many values rest on one well or one pass, so single values are uncertain.

Columns and labels:
Experiment in all cases: cell count relative to DMSO control; melanoma cells; higher = more viable cells
Conditions in all cases: library dose: low library concentration; 72 h
MZ2-MEL = test system: MZ2-MEL
MeWo = test system: MeWo
RPMI7951 = test system: RPMI7951
RVH-421 = test system: RVH-421
SkMel28 = test system: SkMel28
SkMel2 = test system: SkMel2
SkMel30 = test system: SkMel30
UACC62 = test system: UACC62
WM115 = test system: WM115
WM1716 = test system: WM1716
WM1745 = test system: WM1745
WM3526 = test system: WM3526
WM3619 = test system: WM3619
WM451Lu = test system: WM451Lu
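Further: cell number obtained by counting DAPI-stained nuclei in high-throughput microscope images with image analysis software, screen run in 1,536-well plates.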

Compound | cell count (MZ2-MEL) | cell count (MeWo) | cell count (RPMI7951) | cell count (RVH-421) | cell count (SkMel28) | cell count (SkMel2) | cell count (SkMel30) | cell count (UACC62) | cell count (WM115) | cell count (WM1716) | cell count (WM1745) | cell count (WM3526) | cell count (WM3619) | cell count (WM451Lu)
CC[C@]1(O)C[C@H]2CN(CCc3c([nH]c4ccccc34)[C@@](C(=O)OC)(c3cc4c(cc3OC)N(C=O)[C@H]3[C@@](O)(C(=O)OC)[C@H](OC(C)=O)[C@]5(CC)C=CCN6CC[C@]43[C@@H]65)C2)C1 [vincristine] + Cn1sc(=O)n(Cc2ccccc2)c1=O [TDZD-8] (first compound 0.0001 µM, partner dose 0.4 µM) | 109% | 93.7% | 68.8% | 87.8% | 68.8% | 99.2% | 71.1% | 82.8% | 70.5% | 48.7% | 80.6% | 103% | 67.5% | 63.6%
Cc1cc(Nc2cc(N3CCN(C)CC3)nc(Sc3ccc(NC(=O)C4CC4)cc3)n2)n[nH]1 [Tozasertib] + CC(=O)c1c(C)c2cnc(Nc3ccc(N4CCNCC4)cn3)nc2n(C2CCCC2)c1=O [palbociclib] (first compound 0.006 µM, partner dose 0.04 µM) | 87% | 81.2% | 87.3% | 80.3% | 67.2% | 70.8% | 65% | 64.3% | 69.5% | 59.2% | 78.5% | 59.1% | 65.7% | 74.8%
Cc1cc(Nc2cc(N3CCN(C)CC3)nc(Sc3ccc(NC(=O)C4CC4)cc3)n2)n[nH]1 [Tozasertib] + Cn1c(=O)n(-c2ccc(C(C)(C)C#N)cc2)c2c3cc(-c4cnc5ccccc5c4)ccc3ncc21 [NVP-BEZ235] (first compound 0.006 µM, partner dose 0.004 µM) | 102% | 89.9% | 85.3% | 91.8% | 89.7% | 91.8% | 93.6% | 101% | 99% | 89.5% | 94.9% | 87% | 92.3% | 113%
CC[C@]1(O)C[C@H]2CN(CCc3c([nH]c4ccccc34)[C@@](C(=O)OC)(c3cc4c(cc3OC)N(C=O)[C@H]3[C@@](O)(C(=O)OC)[C@H](OC(C)=O)[C@]5(CC)C=CCN6CC[C@]43[C@@H]65)C2)C1 [vincristine] + CS(=O)(=O)c1ccc(C(=O)Nc2ccc(Cl)c(-c3ccccn3)c2)c(Cl)c1 [vismodegib] (first compound 0.0001 µM, partner dose 1 µM) | 95.5% | 81.9% | 47.3% | 87.8% | 95% | 99.5% | 67.1% | 67.8% | 55.5% | 46% | 89.1% | 86% | 53.5% | 74.2%
CC[C@]1(O)C[C@H]2CN(CCc3c([nH]c4ccccc34)[C@@](C(=O)OC)(c3cc4c(cc3OC)N(C=O)[C@H]3[C@@](O)(C(=O)OC)[C@H](OC(C)=O)[C@]5(CC)C=CCN6CC[C@]43[C@@H]65)C2)C1 [vincristine] + Cc1ccc(Nc2nccc(N(C)c3ccc4c(C)n(C)nc4c3)n2)cc1S(N)(=O)=O [Pazopanib] (first compound 0.0001 µM, partner dose 0.4 µM) | 80.5% | 98.6% | 61.2% | 61.9% | 63.3% | 83.4% | 69% | 69.1% | 61.3% | 39% | 86.9% | 62.2% | 48.1% | 65.3%
Cc1cc(Nc2cc(N3CCN(C)CC3)nc(Sc3ccc(NC(=O)C4CC4)cc3)n2)n[nH]1 [Tozasertib] + CN1CCN(c2ccc3nc(-c4c(N)c5c(F)cccc5[nH]c4=O)[nH]c3c2)CC1 [Dovitinib] (first compound 0.006 µM, partner dose 0.1 µM) | 95.2% | 93.5% | 113% | 98.6% | 107% | 100% | 76.5% | 90.3% | 97.8% | 103% | 76.3% | 90.6% | 82.5% | 82.8%
N#CC[C@H](C1CCCC1)n1cc(-c2ncnc3[nH]ccc23)cn1 [ruxolitinib] + CC(=O)O[C@@]12CO[C@@H]1C[C@H](O)[C@@]1(C)C(=O)[C@H](O)C3=C(C)[C@@H](OC(=O)[C@H](O)[C@@H](NC(=O)OC(C)(C)C)c4ccccc4)C[C@@](O)([C@@H](OC(=O)c4ccccc4)[C@H]21)C3(C)C [Docetaxel] (first compound 1 µM, partner dose 0.0001 µM) | 70.9% | 59.5% | 45.4% | 71.6% | 72.4% | 57.3% | 49.4% | 40.6% | 71.8% | 53% | 61.5% | 63.1% | 53.3% | 61.2%
